Some of the results follow. These are further read-outs of the screen, such as a control signal, another cell line or another target. No call is given for them.
Molecular target: GTPase KRas (Homo sapiens) (UniProt P01116)
Experiment: Cysteine mutants labelled by reactive fragments (mass read-out) (AID 2202238)
Set-up: protein at 5 µM with 500 µM competing thiol for 1.5 h
Details: KRAS G12D cysteine mutants, disulfide tethering, MALDI-TOF labeling, stronger effect = higher value, fragment at 500 µM
[1] = measured here: G75C mutant labeling
[2] = measured here: H94C mutant labeling
[3] = measured here: I36C mutant labeling
[4] = measured here: L120C mutant labeling
[5] = measured here: M67C mutant labeling
[6] = measured here: M72C mutant labeling
[7] = measured here: N86C mutant labeling
[8] = measured here: P121C mutant labeling
[9] = measured here: S122C mutant labeling
[10] = measured here: S136C mutant labeling
[11] = measured here: G60C mutant labeling
[12] = measured here: N26C mutant labeling

Chain of UniProt P01116 (P01116 whole entry, looked up, the tested form may be a part): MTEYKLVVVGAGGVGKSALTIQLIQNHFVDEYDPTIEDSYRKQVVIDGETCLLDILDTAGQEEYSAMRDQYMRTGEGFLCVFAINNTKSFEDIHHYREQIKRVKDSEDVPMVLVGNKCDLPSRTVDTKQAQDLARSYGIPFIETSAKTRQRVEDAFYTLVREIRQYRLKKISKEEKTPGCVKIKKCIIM

SMILES | percent labeling [1] | percent labeling [2] | percent labeling [3] | percent labeling [4] | percent labeling [5] | percent labeling [6] | percent labeling [7] | percent labeling [8] | percent labeling [9] | percent labeling [10] | percent labeling [11] | percent labeling [12]
O=C(NCCS)C1CN(C(c2ccccc2)c2ccccc2)C1 | 6.6% | 17.6% | 15.4% | 11.4% | 26.9% | 16.5% | 12.8% | 10.9% | 9.1% | 41.2% |  | 
O=C(NCC1CCCCN1C(=O)CCS)c1ccccc1 (centres undefined) | 11.7% | 39.9% | 37.6% | 31.1% | 46.3% | 29% | 20% | 36.5% | 33.4% | 64.3% |  | 
O=C(CCCc1ccc(F)c(F)c1)NCCS | 19.4% | 27.3% | 22.6% | 24.1% | 22% | 36.6% | 16% | 25.1% | 20.8% | 36.6% | 47.3% | 37%
O=C(CNC(=O)Cc1ccc(O)cc1)NCCS | 11.4% | 26.7% | 23% | 43% | 31.4% | 20.8% | 31.7% | 26.9% | 27.9% | 32.7% | 26.6% | 36.6%
Cc1csc2nc(CC(=O)NCCS)cn12 | 14.8% | 24.2% | 15.8% | 38.3% | 21.5% | 37.3% | 17.5% | 31% | 17.5% | 48.9% | 32% | 32.6%
O=C(NCCS)c1cc(Cc2ccccc2)[nH]n1 | 19% | 16.3% | 14.4% | 26.9% | 25.5% | 38.7% | 13.2% | 14.5% | 13.7% | 28.7% | 21.8% | 35.3%
O=C(CCS)Nc1ccccc1Oc1cccc(F)c1 | 13.4% | 24.6% | 24.7% | 19.1% | 20.5% | 32.7% | 12.7% | 18.4% | 14.6% | 33.7% |  | 
CC(C)(C)OC1CC(CC(=O)NCCS)C1(C)C (centres undefined) | 13% | 31.2% | 20.8% | 33.4% | 30.7% | 21.3% | 23.5% | 29.6% | 30.7% | 48.3% | 32.3% | 35.1%
O=C(CCc1nnc(C2CC2)n1-c1ccccc1)NCCS | 13.4% | 31.8% | 24.6% | 40.7% | 33.8% | 18.5% | 18% | 28% | 24% | 63.7% | 38.3% | 29.7%
COc1ccc(C(=O)NCCS)cc1-n1cnnn1 | 14.4% | 23.1% | 25.5% | 36% | 31.1% | 49.6% | 21% | 23.4% | 25.6% | 37.6% | 25.5% | 42.7%
O=C(NCCS)c1cccc(NC(=O)c2ccc(Br)cc2)c1 | 0% | 2.2% | 4.9% | 0% | 0% | 4.7% | 0% | 0% | 0% | 5.6% | 6% | 19.8%
O=C(CCS)N1CCC2(C=Cc3ccccc3O2)CC1 | 21.1% | 29.9% | 24.1% | 23.8% | 40.4% | 33% | 17.4% | 24.6% | 17% | 37.1% |  | 
CN1CCN(Cc2ccc(NC(=O)CCS)c(F)c2)CC1 | 18.7% | 41.3% | 50.8% | 33.4% | 49.3% | 44.4% | 52.4% | 31% | 37.3% | 55.2% |  | 
N#CCc1ccc(S(=O)(=O)N2CCC(C(=O)NCCS)CC2)cc1 | 9% | 16.2% | 17.5% | 15% | 18.6% | 15.1% | 15.5% | 17% | 15.2% | 23.2% | 20.9% | 34.5%
O=C(CCS)N1CCN(Cc2coc(-c3ccccc3)n2)CC1 | 22.8% | 33.6% | 51.5% | 34% | 60% | 26.9% | 20.4% | 32.8% | 28.8% | 49.5% |  | 
O=C(CCS)NCCNc1ncnc2sccc12 | 21.5% | 34% | 54.3% | 39.3% | 43.3% | 38.5% | 33.7% | 34.8% | 31.4% | 52.5% |  | 
O=C(NCCS)C1CCOC2(CCOCC2)C1 (centres undefined) | 10.3% | 27.2% | 20.7% | 24.5% | 27.5% | 9.6% | 17.8% | 29.2% | 30.9% | 38.1% | 25.2% | 29.4%
NC(=O)c1cc(O)ccc1NC(=O)CCS | 17.7% | 30% | 36.4% | 33.8% | 29.1% | 33.6% | 32.7% | 39.1% | 40.7% | 43.6% |  | 
Cc1cc(COc2ccc(C(=O)NCCS)cc2Br)no1 | 11.5% | 8.3% | 3.5% | 9.4% | 4.3% | 19.1% | 0% | 5.9% | 4.2% | 7.3% | 29.5% | 16.7%
CN(Cc1cnn(Cc2ccccc2)c1)C(=O)CCS | 13.6% | 39.3% | 40.3% | 37.7% | 53.7% | 37.8% | 22.2% | 35.9% | 37.5% | 60.8% |  | 
O=C(NCCS)c1nc2n(c1Cl)CCCC2 | 23.9% | 34.8% | 23.7% | 41% | 39.7% | 64.7% | 29% | 30.1% | 30.4% | 49.5% | 42.3% | 39.9%
Cn1nc(C2CCCN(C(=O)CCS)C2)nc1N (centres undefined) | 9% | 25.6% | 30.3% | 31.2% | 33.7% | 13.4% | 13.3% | 27.4% | 33.8% | 49.6% |  | 
O=C(CCS)N1CCSc2c([nH]c3ccccc23)C1 | 13.8% | 22.7% | 27% | 23.7% | 33% | 25.8% | 20.7% | 22.7% | 14.7% | 27.7% |  | 

SMILES | percent labeling [1] | percent labeling [2] | percent labeling [3] | percent labeling [4] | percent labeling [5] | percent labeling [6] | percent labeling [7] | percent labeling [8] | percent labeling [9] | percent labeling [10] | percent labeling [11] | percent labeling [12]
O=C(CCS)N1CCN(c2cccs2)C(=O)C1 | 13.4% | 26.5% | 36.4% | 25.3% | 27.9% | 29.8% | 14.1% | 35% | 27.6% | 49.3% |  | 
O=C(CCn1nc2ccccn2c1=O)NCCS | 3.6% | 20% | 21.5% | 29.3% | 25.2% | 7.6% | 16.6% | 26.7% | 24.4% | 32.5% | 16.7% | 24.9%
O=C(Cc1coc(-c2ccccc2)n1)NCCS | 15.7% | 19.2% | 18.1% | 37.5% | 28.8% | 26.7% | 11.4% | 21.4% | 13.9% | 25.7% | 29.4% | 31.9%
Cc1c(C(=O)NCCS)oc2ccc(Br)cc12 | 15.7% | 14.2% | 10.2% | 10.8% | 9.6% | 20.1% | 12.6% | 14.7% | 6.6% | 12.2% | 49.9% | 24.5%
O=C(CCS)NC1CC2(CCC2)Oc2ccc(Br)cc21 (centres undefined) | 11.7% | 20.8% | 18.1% | 10.3% | 17% | 25.2% | 11.5% | 17.8% | 4.8% | 25.5% |  | 
CCc1nc2ccc(Cl)cn2c1C(=O)NCCS | 26.3% | 21.6% | 13% | 17.2% | 17% | 42.9% | 16.1% | 16% | 11.3% | 26.3% | 29.8% | 36.5%
COc1c(C)cnc(CN(C)C(=O)CCS)c1C | 16.1% | 34.2% | 39.3% | 36.7% | 39.5% | 23.9% | 13.7% | 32.4% | 28.3% | 58.2% |  | 
CC(C)(C(=O)NCCS)c1cccc(C(F)(F)F)n1 | 19.1% | 31.4% | 18.7% | 37.7% | 29% | 32% | 27.1% | 26% | 26.9% | 37.2% | 42.6% | 39.1%
Cn1nc(-c2cccnc2)cc1C(=O)NCCS | 32.3% | 30.1% | 24.2% | 18% | 29.7% | 49.1% | 23.6% | 28.7% | 26.9% | 47.4% | 38.7% | 58.6%
Cc1oc(-c2cnn(C)c2)nc1C(=O)NCCS | 18.6% | 23.6% | 15.9% | 39.3% | 19.7% | 48% | 22.4% | 21.8% | 24.9% | 37.7% | 45.7% | 47%
O=C(CCNC(=O)c1cc(F)ccc1Br)NCCS | 14% | 33.9% | 23.6% | 32.7% | 31.6% | 22.1% | 23% | 33.3% | 29.2% | 40.3% | 37.1% | 37.1%
CC1(CNC(=O)CCS)OCCc2sccc21 (centres undefined) | 12.1% | 38% | 35.4% | 32.7% | 35% | 36.8% | 16.5% | 34.7% | 34.3% | 54.8% |  | 
Cn1nccc1C1=CC2CCC(C1)N2C(=O)CCS (centres undefined) | 9.9% | 26.1% | 29% | 27.4% | 41% | 15.7% | 12.2% | 25.9% | 24.4% | 41.6% |  | 
O=C(NCCS)C1CC(O)CN1c1ccncn1 (centres undefined) | 9.9% | 26.6% | 22.7% | 58.3% | 27.3% | 9% | 23.5% | 31.1% | 28.9% | 30.5% | 19.1% | 30.6%
O=C(NCCS)c1cc(Cl)nn1-c1ncccc1Cl | 15.6% | 37.9% | 27.2% | 22.9% | 24.1% | 44.8% | 21.1% | 24.1% | 20.7% | 44.5% | 61.6% | 38.7%
COC(=O)c1conc1C1CCN(C(=O)CCS)CC1 | 18.4% | 40% | 41.4% | 43.9% | 40.3% | 35.6% | 28.8% | 38% | 42.2% | 68.8% |  | 
CCN(CC)Cc1ccccc1CNC(=O)CCS | 12.8% | 46.3% | 54.7% | 28.3% | 51.9% | 22.1% | 17.7% | 34.6% | 34.2% | 78.2% |  | 
Cc1cccc(-c2ccc(C(=O)NCCS)n2C)c1 | 12.1% | 15.4% | 6.9% | 17.3% | 10.6% | 71.6% | 11.3% | 18.6% | 8.4% | 15.3% | 26.6% | 22.5%
CC(NC(=O)NCc1ccc(C(=O)NCCS)o1)c1cccs1 (centres undefined) | 7.9% | 17.5% | 11.8% | 19.7% | 13.1% | 18.2% | 8.1% | 10.1% | 11% | 14.4% | 15.7% | 21.6%
O=C(Cc1cc(Cl)c2c(c1)OCCCO2)NCCS | 22.5% | 26% | 24.6% | 33.5% | 28.9% | 47.2% | 19.8% | 20.8% | 21.1% | 31.9% | 44.8% | 35.1%
N#Cc1cc(NC(=O)CCS)ccc1OC(F)F | 17.8% | 22.7% | 26.1% | 17.7% | 23.3% | 29.5% | 12.8% | 18.6% | 13.5% | 29.2% |  | 
Cc1nc(C(=O)NCCS)c(-c2ccccc2)s1 | 13.3% | 23.9% | 15.9% | 27.3% | 25% | 24.2% | 14.6% | 15.4% | 14.3% | 29.5% | 43.8% | 32.9%
O=C(CC1CCC(C(F)(F)F)CC1)NCCS (centres undefined) | 14.8% | 28.3% | 23% | 31% | 25.6% | 26.8% | 21.3% | 26.4% | 26.5% | 37.9% | 41.2% | 34.5%

— PubChem BioAssay AID2202238 (Ras Initiative Chemistry Research Team, Frederick National …, 2025)
